Data reported in the supplement of paper PMC11181314.
The other results are listed elsewhere or left out. Single values of this set are uncertain.

Test system: U2OS
Assay: Cell Painting induction (percent of morphological features significantly changed vs DMSO); higher = stronger morphological change
Details: 10 µM, 20 h
Experimental: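 Cell Painting assay in U2OS cells: compounds at 10 µM for 20 h, six dyes, 579 robust CellProfiler features as Z-scores vs DMSO median (MAD). Induction is the % of significantly changed features (active if ≥5%); relative cell count is in % of DMSO. The primary run holds DCM compounds preselected for induction ≥10%; the confirmation repeat defines active compounds (370 of 549). Replicate agreement is low, attributed to precipitation.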

[1] = run: primary screen (compounds selected for induction >=10%)
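Also: stains mark DNA, RNA and nucleoli, ER, actin, Golgi, plasma membrane and mitochondria, read by high-content imaging, with DMSO controls at matching solvent concentration.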

Structure (SMILES)	Cell Painting induction (run: confirmation repeat)	Cell Painting induction [1] [%]
COc1ccc(NC(=O)C(NC(=O)Cc2cccs2)c2ccccc2)cc1 (stereo not given)	inactive: 1.4%	20.9
CCCCN(CCCC)CCCNC(=O)c1ccc2nc(-c3ccccc3NC(C)=O)c(O)nc2c1	active: 30.2%	17.6
O=C(Cc1c(F)cccc1Cl)Nc1ccc(S(=O)(=O)N2CCCC2)cc1	inactive: 1.7%	17.3
C=CCOC(=O)C1=C(C)N=C2SCCC(=O)N2C1/C=C/c1ccccc1OC (stereo not given)	active: 5.4%	22.3
Cc1ccc(OCC(=O)Nc2ccccc2C(N)=O)c(C(C)(C)C)c1	active: 15.2%	10.4
COc1ccccc1N1CCN(S(=O)(=O)CCNC(=O)c2cc(OC)c(OC)c(OC)c2)CC1	active: 32.5%	41.5
COc1ccc(OCC(=O)Nc2c(C(=O)N3CCC(N4CCCCC4)CC3)oc3ccccc23)cc1	active: 48.7%	38
Cc1cccc(N2CCN(c3ccc4cc(S(=O)(=O)N5CCCCC5)ccc4n3)CC2C)c1 (stereo not given)	active: 11.4%	31.1
COc1cc(NC(=S)NC2CC(C)(C)NC(C)(C)C2)c(OC)cc1Cl	active: 36.3%	38.3
CCc1ccc(-c2cc(C)no2)cc1S(=O)(=O)N1CCN(c2ccc(OC)cc2)CC1	active: 22.1%	18.8
